Results: PubChem BioAssay AID485313 (National Center for Advancing Translational Sciences (NCATS), 2010)
Among all 320,000 compounds or so, about 7,600 (2.4%) were called active. The inconclusive results got no clear call from the source; some entries with a clear call stand among them for comparison. The call rests on the fitted dose curve; in most records, active means well fitted activation curve with a large enough effect; inconclusive means small, poorly fitted or top-dose-only effect; inactive means no such curve, though single readings can be large or run the other way. Potencies of inconclusive entries are left out as doubtful fits.

assay: qHTS Assay for NPC1 Promoter Activators; conditions: Huh7 NPC1 promoter luciferase reporter, 24 h; series mostly up to 9.22 µM; activation: at the top concentration; further: nearly all actives have a fitted effect of over 60% in size;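 on activation: reporter is driven by a mutant NPC1 promoter; % of control where 0% means no effect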
Method in brief: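 NPC1 promoter–luciferase Huh7 cells; 24 h compound; luminescence.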
Potency means the concentration at half of the fitted maximal effect; tags describe the fitted curve by direction and shape.

SMILES	Potency	activation
Cc1ccc2nc3c(cc(C(=O)NCC4CCCO4)c(=N)n3C3CCCC3)c(=O)n2c1 (configuration not stated)	inconclusive [activator, single point]	
O=C(NC1CC1)C1CCN(S(=O)(=O)c2ccc(Cl)c([N+](=O)[O-])c2)CC1		inactive: 1.33%
O=C(COc1cc(Cl)c(Cl)cc1Cl)NC(=O)Nc1ccc2c(c1)OCCO2	inconclusive [activator, partial curve]	
O=C(CCNc1cccc(Cl)c1)c1ccco1		inactive: -0.564%
O=[N+]([O-])c1ccc(O)c(Nc2ncnc3ccccc23)c1	inconclusive [activator, partial curve]	
CCCn1cnc2cc(NCc3cccc(OC)c3)ccc21	inconclusive [activator, partial curve]	
CCN1CCN(C(=O)CN2C(=O)c3ccccc3S2(=O)=O)CC1	inconclusive [activator, partial curve]	
CC(C)(C)SCCNC(=O)/C=C/c1ccccc1	inconclusive [activator, single point]	
COc1ccc(C(=O)NCC(=O)OCC(=O)N2CCC(C)CC2)cc1OC		inactive: -2.35%
COc1ccc(OC)c(S(=O)(=O)N2CCN3CCCC3C2)c1 (configuration not stated)	inconclusive [activator, single point]	
Cc1ccc(SCc2cn3cccnc3n2)cc1	inconclusive [activator, single point]	
O=C(O)c1cccc(NC(=O)c2cn(-c3ccccc3)nc2-c2ccc([N+](=O)[O-])cc2)c1		inactive: -8.27%
O=C(Nc1ccccc1)c1cccc(N2CCCC2=O)c1	inconclusive [activator, single point]	
O=C(c1cnn(-c2ccccc2)c1)c1cc(Br)ccc1O		inactive: -1.67%
CSc1ccc(CNc2ccc(C)c(C)c2)cc1	inconclusive [activator, single point]	
Clc1ccc2nc(-c3ccc(Cl)nc3)[nH]c2c1	active: 2.24 µM	
COc1ccc(C(=O)CN2C(=O)NC(C)(c3ccc(C)cc3)C2=O)cc1OC (configuration not stated)	inconclusive [activator, single point]	
Cc1ccc(/C=N/Nc2ccc3ccccc3n2)o1	active: 0.708 µM	
S=C(Nc1nc2c(s1)CCCC2)NC1CC1	inconclusive [activator, partial curve]	
Cc1c(C(=O)Nc2ccccc2)sc2nc(-c3ccccc3)cn12	inconclusive [activator, partial curve]	
Cc1ccc2c(CN3CCC(C)CC3)cc(=O)oc2c1C	inconclusive [activator, partial curve]	
Cc1cc(C)cc(NC(=O)CSc2nnc(-c3ccccc3C)o2)c1	inconclusive [activator, partial curve]	
CCOC(=O)c1cc2c(nc1N)CC(C)(CC)OC2 (configuration not stated)	inconclusive [activator, partial curve]	
CC(=O)c1cccc(NC(=O)NC2CCCCC2)c1		inactive: 2.72%
Cc1cc(NC(=O)c2nn(C)c(C)c2Br)no1	inconclusive [activator, single point]	
COc1ccc(-c2nnc(-c3cccnc3)o2)cc1	inconclusive [activator, single point]	

SMILES	Potency	activation
c1ccc(Cn2c(-c3cncs3)nc3ccccc32)cc1	inconclusive [activator, partial curve]	
CC1SCC(=NOCc2ccccc2)CS1 (configuration not stated)	inconclusive [activator, single point]	
O=c1c2[nH]c3ccccc3c2ncn1C1CCCCC1	active: 4.47 µM	
O=C1CCCN1CCC(=O)N1CCCC(CO)(Cc2ccccc2)C1 (configuration not stated)	inconclusive [activator, single point]	
Cc1ccc(O)c(C(=O)/C=C/c2ccc3c(c2)OCCCO3)c1	inconclusive [activator, single point]	
Nc1cc(N)nc(SCCOc2ccccc2)n1	inconclusive [activator, partial curve]	
CCn1ncc(N(C)N)c(Cl)c1=O		inactive: -0.272%
Cc1sc(NC(=O)c2ccc(Br)s2)c(C(N)=O)c1C	inconclusive [activator, single point]	
O=C(Nc1ccc2c(c1)oc1ccccc12)c1ccc2c(c1)OCO2	inconclusive [activator, single point]	
O=C(CNC(=O)c1cccs1)N/N=C/c1ccccc1[N+](=O)[O-]	inconclusive [activator, single point]	
CCOC(=O)C1(Cc2cccc(OC)c2)CCCN(C(=O)c2ccc(OC)o2)C1 (configuration not stated)	inconclusive [activator, single point]	
OCC1(CCc2ccccc2)CCN(Cc2cccn2-c2cccnc2)CC1		inactive: -0.178%
CC(=O)Nc1nc(-c2ccc3c(c2)CCO3)cs1	inconclusive [activator, partial curve]	
COC(=O)c1ccc(COc2ccc3c(C)c(C)c(=O)oc3c2C)o1	inconclusive [activator, partial curve]	
CC(=O)CSc1nnc(-c2ccc3c(c2)OCO3)o1	inconclusive [activator, partial curve]	
Cc1ccc2oc(-c3ccco3)cc(=O)c2c1	inconclusive [activator, single point]	
Fc1ccc(-c2csc(-c3cccnc3)n2)cc1F	inconclusive [activator, single point]	
Cc1sc2c(c1C)CN(C(C)(C)C)CN2C(=O)c1ccccc1	inconclusive [activator, partial curve]	
Nc1ccccc1N=Cc1ccc(-c2cccc(Cl)c2)o1	active: 2.82 µM	
CC(C)(C)c1ccc(-c2nnc(N)o2)cc1	active: 2.82 µM	
Cc1ccc(CONC(=O)c2cccc(C)c2)cc1		inactive: 16.3%
COc1ccccc1CN1CN(S(=O)(=O)c2ccccc2)c2nc3ccccc3nc21		inactive: 9.22%
COc1ccc(Nc2ccc(OC)cc2)cc1	inconclusive [activator, single point]	
C/C(=N\NC(=O)c1nc2ccccn2c1C)c1ccco1	inconclusive [activator, single point]	
O=C1CC(NS(=O)(=O)c2ccccc2F)CN1c1ccc2c(c1)OCCO2 (configuration not stated)		inactive: -3.1%
C/C(=N\NC(=O)c1ccoc1C)c1ccccc1	active: 2.51 µM	

SMILES	Potency	activation
Cc1c(C(=O)NCCC2=CCCCC2)cccc1[N+](=O)[O-]	inconclusive [activator, partial curve]	
O=C(Nc1ccc2ncccc2c1)Nc1ccc2ncccc2c1	inconclusive [activator, partial curve]	
O=C(Nc1ccc(Cl)c(Cl)c1)Nc1cc(S(=O)(=O)N2CCOCC2)ccc1N1CCCC1		inactive: 16.2%
O=C(c1cccc([N+](=O)[O-])c1)c1cc2ccccc2o1		inactive: 9.34%
COc1ccc(C(=O)Nc2ccc3cn[nH]c3c2)c(OC)c1	inconclusive [activator, single point]	
CC(C)COC(=O)n1c(SCC(=O)N(C)C)nc2ccccc21	inconclusive [activator, full curve]	
O=c1c(Br)c(N2CCCCC2)cnn1-c1ccccc1	active: 3.55 µM	
O=C(N/N=C/c1ccccc1C(F)(F)F)c1ccc(O)cc1	inconclusive [activator, single point]	
CCCCCCn1cnc2c(oc3nc4c(cc32)CCCC4)c1=O	inconclusive [activator, partial curve]	
CCn1nccc1C(=O)Nc1ccc(C)c(C)c1	inconclusive [activator, partial curve]	
Cc1cc(C)n(CCC(=O)Nc2cccc(F)c2)n1		inactive: -0.364%
O=C(Nc1ccc(N2CCCCC2)cc1)c1ccc2ccccc2n1	inconclusive [activator, single point]	
COC(=O)c1c(-c2ccc(OC)cc2)sc2cc3c(cc12)OCO3	inconclusive [activator, partial curve]	
CN(CC(=O)Nc1ccc(F)c(F)c1F)C(=O)/C=C/c1ccc(Cl)cc1		inactive: -1.54%
CCN1/C(=C/C(=S)Nc2ccccc2)Sc2ccccc21	active: 3.98 µM	
CN(CC(=O)Nc1c(Cl)cccc1Cl)C(=O)c1ccc(-n2cncn2)c([N+](=O)[O-])c1		inactive: -2.88%
NC(=O)CSc1nc(C23CC4CC(CC(C4)C2)C3)nc2ccccc12		inactive: 2%
COc1ccc(-n2nc(C(=O)NCC(=O)N3CCN(c4ccccc4F)CC3)c3ccccc3c2=O)cc1	inconclusive [activator, single point]	
COc1ccc(NC(=O)CCNS(=O)(=O)c2cc(Br)cnc2N)cc1OC		inactive: -0.663%
Cc1cc2c(C)nc(N/N=C/c3ccccc3)nc2o1	inconclusive [activator, single point]	
CS(=O)(=O)N1CCC(C(=O)N2CCN(C(c3ccccc3)c3ccccc3)CC2)CC1		inactive: -4.57%
COc1ccc(OC(=O)c2cc3ccccc3o2)cc1		inactive: 0.0588%
CCCCc1nc2cc(C(=O)NC(C)c3cnn(C)c3)ccc2o1 (configuration not stated)	inconclusive [activator, partial curve]	
COc1ccc2cc(/C=C/C(=O)c3ccco3)c(Cl)nc2c1	inconclusive [activator, partial curve]	
COc1cccc(C2Nc3ccccc3C(=O)N2c2ccc(F)cc2)c1O (configuration not stated)	inconclusive [activator, partial curve]	
